# Assay results: paper PMC5469273, “Discovery of Novel Small-Molecule Inhibitors of LIM Domain Kinase for Inhibiting HIV-1” (Journal of Virology, 2017)
# Assays:
# [1] = test system: HIV 92/BR/018 (Brazil) and HIV 93UG070 (Uganda); experiment: HIV-1 primary isolate infection of PBMC (p24 ELISA); details: 100 μM 1 h, infection 3 h, washed, 3 days
# [2] = test system: threonine 508/505 phosphorylation of LIMK1/2; experiment: Western blotting for p-LIMK1/2 in CEM-SS T cells; details: 100 μM, time course
# HIV-1(NL4-3) = format: cell-based; details: 100 μM 1 h, infection 2 h, washed, 5 days, CD3/CD28 activation; p24
# HIV-1(AD8) = format: cell-based; details: washed, 5 days, CD3/CD28 activation
smiles,measurement,setting,value
"COC(=O)c1ccc2[nH]c(C3CCN(c4ncnc5[nH]cc(Cl)c45)CC3)nc2c1 [Compound R10015, Methyl 2-(1-(5-chloro-7H-pyrrolo[2,3-d]pyrimidin-4-yl)piperidin-4-yl)-1H-benzo[d]imidazole-5-carboxylate]",HIV replication of primary isolates in PBMC,[1],inhibition
same,threonine 508/505 phosphorylation of LIMK1/2,[2],did not inhibit
same,X4 HIV-1 latent infection of resting CD4 T cells,HIV-1(NL4-3),blocked
same,R5 HIV latent infection of resting memory CD4 T cells,HIV-1(AD8),dose-dependent inhibition
